# Results reported in PubChem BioAssay AID1347165 (National Center for Advancing Translational Sciences (NCATS), 2019).
# “And” between values parts separate entries of the source, which are not always exact repeats. Equal entries are not always repeated. In all, about 220,000 compounds went through this assay and about 5,700 (2.6%) were called active. Inconclusive results, whose numbers are uncertain, are shown with a selection of clear calls. Calls come from the whole dose curve; as a rule, active = well fitted inhibition curve with a large enough effect; inconclusive = small, poorly fitted or top-dose-only effect; inactive = no such curve, though single readings can be large or run the other way. A potency beside an inconclusive call is a rough fit, not a confirmed value.
# Target: Lysine-specific demethylase 5B (Homo sapiens) (UniProt Q9UGL1)
# Assay: Primary screen for KDM5B Histone Demethylases FDH-coupled qHTS; note: nearly all actives have a fitted effect of over 70% in size; for activity change, negative = inhibition: 0% is about no effect
# Conditions: FDH-coupled NADH fluorescence (FDH is formaldehyde dehydrogenase); activity change, negative = inhibition: at 57.7 µM (top of the series) unless noted
# In short: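 Measured: NADH fluorescence change, 30 min, RT. System: KDM5BΔAP 200 nM final, H3K4me3 peptide, α-KG, Fe(II), ascorbate, NAD⁺ plus FDH, pH 7.5 HEPES. Compounds: titrated, 10 min pre-incubation with enzyme.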
# Potency is the fitted concentration of half-maximal effect; tags give direction and shape of the fitted curve.
# UniProt Q9UGL1, sequence (Q9UGL1 whole entry, looked up): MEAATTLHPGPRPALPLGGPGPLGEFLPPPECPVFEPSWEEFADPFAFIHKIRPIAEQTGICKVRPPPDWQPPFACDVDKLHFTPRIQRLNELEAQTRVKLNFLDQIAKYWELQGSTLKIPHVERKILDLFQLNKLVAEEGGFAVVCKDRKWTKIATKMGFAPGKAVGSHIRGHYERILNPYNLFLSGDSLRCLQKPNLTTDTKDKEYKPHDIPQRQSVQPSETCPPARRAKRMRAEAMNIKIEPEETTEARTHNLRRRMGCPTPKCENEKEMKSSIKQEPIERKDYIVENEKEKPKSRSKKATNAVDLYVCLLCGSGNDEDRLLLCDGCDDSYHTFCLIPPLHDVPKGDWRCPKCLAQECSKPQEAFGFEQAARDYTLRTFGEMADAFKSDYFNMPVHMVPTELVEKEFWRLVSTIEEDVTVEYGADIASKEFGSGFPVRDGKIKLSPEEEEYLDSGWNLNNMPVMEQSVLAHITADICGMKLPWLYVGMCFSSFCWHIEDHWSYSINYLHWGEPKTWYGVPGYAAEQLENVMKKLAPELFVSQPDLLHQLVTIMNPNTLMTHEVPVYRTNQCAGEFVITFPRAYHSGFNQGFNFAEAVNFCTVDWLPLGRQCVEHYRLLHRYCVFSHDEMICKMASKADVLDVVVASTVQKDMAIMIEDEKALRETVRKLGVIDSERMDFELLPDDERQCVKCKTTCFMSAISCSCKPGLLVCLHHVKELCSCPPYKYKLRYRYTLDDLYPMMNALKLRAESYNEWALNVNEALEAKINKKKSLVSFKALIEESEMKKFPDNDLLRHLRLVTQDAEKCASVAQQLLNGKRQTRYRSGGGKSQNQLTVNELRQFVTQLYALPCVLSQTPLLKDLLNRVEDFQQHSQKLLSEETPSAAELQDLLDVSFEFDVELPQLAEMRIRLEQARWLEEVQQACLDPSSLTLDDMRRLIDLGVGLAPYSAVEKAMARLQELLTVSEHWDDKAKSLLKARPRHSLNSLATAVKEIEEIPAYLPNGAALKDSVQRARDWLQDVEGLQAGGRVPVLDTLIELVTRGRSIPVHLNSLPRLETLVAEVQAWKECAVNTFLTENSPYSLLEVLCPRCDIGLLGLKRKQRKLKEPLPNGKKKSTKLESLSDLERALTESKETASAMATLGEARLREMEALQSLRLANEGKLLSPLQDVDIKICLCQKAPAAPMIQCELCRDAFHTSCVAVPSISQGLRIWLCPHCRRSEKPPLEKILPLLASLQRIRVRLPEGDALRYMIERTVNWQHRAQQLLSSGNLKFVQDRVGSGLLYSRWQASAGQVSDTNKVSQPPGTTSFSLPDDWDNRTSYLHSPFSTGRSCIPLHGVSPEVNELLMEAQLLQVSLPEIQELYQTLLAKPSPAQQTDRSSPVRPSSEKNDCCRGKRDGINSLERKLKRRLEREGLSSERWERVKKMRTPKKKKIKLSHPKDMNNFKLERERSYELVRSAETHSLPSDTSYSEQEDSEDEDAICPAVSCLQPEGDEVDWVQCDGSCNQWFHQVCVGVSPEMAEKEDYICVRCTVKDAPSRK
SMILES,Potency,"activity change, negative = inhibition"
OCC1CN(c2ncccn2)CC12CCN(Cc1cccc3[nH]ccc13)CC2 (configuration not stated),active: 31.6 µM,
CC(C)C[C@@H]1N[C@H](C(=O)N2CCN(C)CC2)Cc2cn(Cc3nccn3C)c3cccc1c23,"inconclusive: 22.4 µM [inhibitor, partial curve]",
COC1CCCN(c2ccc(C(=O)NCCCn3ccnc3C(C)C)cn2)C1 (configuration not stated),"inconclusive: 1 µM [inhibitor, full curve, poor fit]",
CCC(=O)Oc1ccc2c(c1)O/C(=C\c1ccco1)C2=O,"inconclusive: 39.8 µM [inhibitor, partial curve, poor fit]",
COCC1CN(C2CCC2)CC12CCN(C(=O)c1ccc(OC)c(F)c1)CC2 (configuration not stated),"inconclusive: 4.47 µM [inhibitor, single point]",
COC(=O)c1nc2n(n1)C(c1ccccc1Cl)C(C(=O)Nc1ccc(Cl)cc1)=C(C)N2 (configuration not stated),,inactive: -5.22%
COC1CCOC2(CCN(C(=O)c3cc(F)ccc3F)CC2)C1 (configuration not stated),,inactive: -13.7%
O=C(O)CNS(=O)(=O)c1ccc(Cl)cc1,,inactive: -11.1%
Cc1ccc(CN2CCC3(CC2)CN(c2ccncn2)CC3CO)o1 (configuration not stated),,inactive: -10.4%
CCn1nc(C(=O)OCc2nc(-c3cccc(OC)c3)no2)c2ccccc2c1=O,"inconclusive: 39.8 µM [inhibitor, single point]",
Cn1c(=O)c2[nH]c(N3CCN(c4ccccc4)CC3)nc2n(C)c1=O,,inactive: -3.48%
Cc1c(-c2ccc(Cl)cc2)[n+](=O)c(-c2ccc(Cl)cc2)c(C)n1[O-],,inactive: 14.6%
O=C(NCc1ccnc2[nH]ccc12)c1ccc(C(F)(F)F)cc1,"inconclusive: 44.7 µM [inhibitor, partial curve, poor fit] and active: 35.5 µM",
COc1ccc(C(=O)NCCn2ccn3nc(-c4cc(C)ccc4C)cc3c2=O)cc1,"inconclusive: 39.8 µM [inhibitor, single point]",
CCc1ccccc1NC(=O)CCCn1c(=O)c2cccn2c2ccccc21,"inconclusive: 31.6 µM [inhibitor, partial curve, poor fit]",
O=C(c1ccco1)N1CC(Oc2ccccc2-c2nc(-c3ccccc3)no2)C1,"inconclusive: 22.4 µM [inhibitor, single point]",
O=S(=O)(c1ccc(Br)cc1Cl)N1CCNCC1,,inactive: 6.19%
Cc1cc(C(=O)N2CC(Oc3ccc(-c4nc(-c5ccccc5)no4)cc3)C2)n(C)n1,"inconclusive: 31.6 µM [inhibitor, partial curve, poor fit]",
COc1ccc(C(=O)Oc2ccc(C(c3c(C)[nH][nH]c3=O)c3c(C)[nH][nH]c3=O)cc2)cc1,"inconclusive: 1 µM [inhibitor, full curve, poor fit]",
CCc1cccc(-n2c(=O)c3cccnc3n2CC(=O)Nc2ccc(OC)c(Cl)c2)c1,"inconclusive: 35.5 µM [inhibitor, partial curve, poor fit]",
Cc1ccc(-c2cc(NC(=O)c3cccc(C)c3)on2)cc1,"inconclusive: 25.1 µM [inhibitor, partial curve, poor fit]",
CCc1nonc1NC(=O)c1oc2cc(C)c(C)cc2c1C,"inconclusive: 35.5 µM [inhibitor, single point]",
CC1(CNc2ccccc2)COc2ccc(C(=O)NCc3ccc(F)cc3)cc2N1 (configuration not stated),active: 31.6 µM,

SMILES,Potency,"activity change, negative = inhibition"
O=C(c1ccco1)N1CCN(C(=O)c2cccn3c(=O)c4c5c(sc4nc23)CCCC5)CC1,"inconclusive: 25.1 µM [inhibitor, partial curve, poor fit]",
O=C(Nc1ccc(Cl)cc1)c1ccccc1OCC1CCCO1 (configuration not stated),,inactive: -5.86%
Cc1oc2cc(OC(C)C(=O)Nc3ccc4c(c3)OCCO4)ccc2c(=O)c1-c1ccccc1 (configuration not stated),"inconclusive: 35.5 µM [inhibitor, partial curve, poor fit]",
O=S(=O)(NCc1ccc(F)cc1)c1ccc2[nH]c3c(c2c1)CCCC3,"inconclusive: 28.2 µM [inhibitor, single point]",
Cc1ccc2c(c1)C(CS(=O)(=O)NCCc1ccccc1)NC2 (configuration not stated),"inconclusive: 11.2 µM [inhibitor, partial curve, poor fit]",
CCOC(=O)c1sc(NC(=O)CC[C@H]2NC(=O)c3ccccc3NC2=O)nc1C,"inconclusive: 39.8 µM [inhibitor, single point]",
CN(C)CCCOCC1(C)COc2ccc(C(=O)Nc3ccc(F)c(Cl)c3)cc2N1 (configuration not stated),active: 28.2 µM,
COc1cc(CNc2nccc3c(=O)cc(N4CCOCC4)oc23)cc(OC)c1,active: 28.2 µM,
CCOC(=O)c1c(C)[nH]c(C(=O)COc2ccc3c(C)cc(=O)oc3c2)c1C,"inconclusive: 20 µM [inhibitor, partial curve, poor fit]",
COc1ccc(-c2ccc3c(c2)C(=O)N2CC[C@H](NC(=O)CSC)C[C@H]2C(=O)N3)cc1,"inconclusive: 31.6 µM [inhibitor, single point]",
CCCCc1ncc(CN2CCN(C3CCCC3)C(CCO)C2)[nH]1 (configuration not stated),"inconclusive: 28.2 µM [inhibitor, partial curve, poor fit]",
O=C(NCc1nnc2n1C(C(=O)O)CC2)c1ccccc1 (configuration not stated),active: 100 µM,
O=C(Cc1ccccc1)N1CCC(N2CC(OCC3CC3)C23CCOCC3)CC1 (configuration not stated),,inactive: 9.12%
CN[C@@H](C)C(=O)N1CCC(c2cc(N3CCOCC3)nc(C)n2)CC1,"inconclusive: 10 µM [inhibitor, partial curve]",
O=C(O)COCC(=O)N[C@H]1CCN2C(=O)c3cc(/C=C/c4ccccc4)ccc3NC(=O)[C@H]12,active: 31.6 µM,
COc1ncccc1-c1cccc(COc2ccc3c(cnn3CC[S+](C)(=O)[O-])c2)c1,active: 31.6 µM,
O=C(CCc1ccccc1)N1CCCC2(C1)Nc1cccnc1NC2=NC1CCCC1 (configuration not stated),active: 25.1 µM,
CCOCCCNC(=O)C1CCN(c2nc3ccc(Cl)cc3[nH]2)CC1,"inconclusive: 28.2 µM [inhibitor, single point]",
COc1ccc(CN2CCc3nc(N4CCN(c5ccc(F)cc5)CC4)ncc3C2)c(OC)c1OC,"inconclusive: 25.1 µM [inhibitor, partial curve, poor fit]",
Cc1nn(-c2nc3c(c(=O)[nH]c(=O)n3C)n2Cc2ccccc2Cl)c(C)c1C,,inactive: -4.87%
O=C(N[C@@H]1CN(Cc2ccc3cc[nH]c3c2)C[C@H]1CO)c1ccccc1,"inconclusive: 25.1 µM [inhibitor, single point]",
O=C(Nc1cccc(Cl)c1F)c1cc(S(=O)(=O)N2CCOCC2)c(Cl)cc1Cl,,inactive: 13.6%
O=C(C(c1ccccc1)N1CCN(S(=O)(=O)c2cccs2)CC1)N1CCCC1 (configuration not stated),,inactive: 14.1%

SMILES,Potency,"activity change, negative = inhibition"
C#CCNC(=O)c1nc(-c2cccc(F)c2)c2cnccn12,active: 35.5 µM,
Cc1cccc(Cn2c(CN3CCC(C(=O)NCc4ccccc4Cl)CC3)cc3ccccc32)c1,"inconclusive: 25.1 µM [inhibitor, single point]",
COc1ccc(CNC(=O)c2nccnc2N)cc1,"inconclusive: 25.1 µM [inhibitor, partial curve, poor fit]",
Cc1noc(-c2ccc3c(c2)OCO3)c1C(=O)NCc1ccccc1,active: 28.2 µM,
CC(C)NC(=O)NC[C@H]1O[C@@H](CC(=O)N2CCN(c3ccccc3)CC2)[C@H](O)[C@@H]1O,,inactive: 15.5% [at 86.2 µM]
CCC(C)n1c(=N)c(C(=O)NCc2ccco2)cc2c(=O)n3cc(C)ccc3nc21 (configuration not stated),"inconclusive: 15.8 µM [inhibitor, partial curve, poor fit]",
Cc1ccsc1C(=O)N[C@@H]1CN(c2ncccn2)C[C@H]1CN(C)C,active: 31.6 µM,
O=C(c1c[nH]c2ccc(S(=O)(=O)Nc3ccccc3F)cc2c1=O)N1CCCCCC1,"inconclusive: 28.2 µM [inhibitor, single point]",
CC(=O)Nc1ccc(S(=O)(=O)N2CCN(c3ccc(NCc4ccccc4)nn3)CC2)cc1,"inconclusive: 17.8 µM [inhibitor, partial curve, poor fit]",
Cc1ccc(C(=O)COC(=O)C2CC(=O)N(c3nc(-c4cccc(Cl)c4)c(C)s3)C2)cc1 (configuration not stated),,inactive: 14.7%
O=C1NCCCCCN(Cc2cn[nH]c2-c2cccs2)[C@H]2CCC[C@@H]12,"inconclusive: 10 µM [inhibitor, partial curve, poor fit]",
O=C(CSc1nnc2[nH]c(=O)cc(-c3ccccc3)n12)Nc1ccccc1C(F)(F)F,"inconclusive: 35.5 µM [inhibitor, partial curve, poor fit]",
CCC(=O)N1CCN(c2nc3c(s2)CC(C(=O)Nc2ccc4c(c2)OCO4)CC3)CC1 (configuration not stated),,inactive: -32.7%
Cc1ccc(OCC(O)CNc2nc(C)nc3c2c(C)nn3C)c(C)c1 (configuration not stated),,inactive: 10%
Cc1cc(Nc2cccc(Cl)c2)nc2ccc(NC(=O)C3CCCCC3)cc12,"inconclusive: 11.2 µM [inhibitor, partial curve, poor fit]",
CC1=NN(C(=O)CSCc2ccccc2Cl)C(O)(C(F)(F)F)C1 (configuration not stated),,inactive: -15.8%
Cc1cc(N2CCN(C)CC2)nc2ccc(NC(=O)c3ccccc3F)cc12,"inconclusive: 31.6 µM [inhibitor, single point]",
O=C(c1cccc(F)c1)N1CCN(c2nnc3ccc(Cl)cn23)CC1,active: 14.1 µM,
CNC(=O)c1cccc(-n2c(C)nc3cccnc32)c1C,"inconclusive: 25.1 µM [inhibitor, single point]",
COc1ccc(C)cc1CN1CCN(C(=O)Nc2ccc(F)cc2)CC1,,inactive: 18%
COc1ccc(-c2nc3c(s2)CN(C(C(=O)O)c2c[nH]c4cc(CO)ccc24)CC3)cc1OC (configuration not stated),"inconclusive: 25.1 µM [inhibitor, partial curve, poor fit]",
